Laboratory results taken from PubChem BioAssay (Tox21).
Inconclusive results, whose numbers are uncertain, are shown with a selection of clear calls. For part of these data: Potencies of inconclusive entries are doubtful fits and often do not repeat. The source made the active and inactive calls. Unless noted, calls come from the whole dose curve; as a rule, active = well fitted curve in the direction sought with a large enough effect in the repeat runs; inconclusive = weak or mixed curves; inactive = no such curve, though single readings can be large; an effect the other way counts as inactive or inconclusive.

Legend:
[1] = qHTS assay for small molecule agonists of the p53 signaling pathway (AID 651631; calls by dose curve; note: nearly all actives have a fitted effect of over 15% in size; note: potency is the fitted concentration of half-maximal effect; for activation: % is set by controls: 0 for no effect and ±100 for the full control effect); conditions: HCT-116 p53RE-bla reporter, beta-lactamase FRET ratio, 16 h; activation: at 73.3 µM (top of the series) unless noted
Method in brief: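 HCT-116 cells carrying a beta-lactamase reporter under p53 response elements were dosed with compound for 16 h at 37 °C. LiveBLAzer B/G FRET substrate was then added for 2 h at room temperature, and fluorescence intensity was read to detect pathway agonism.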

[2] = biological target: Glucocorticoid receptor (Homo sapiens) (UniProt P04150); experiment: qHTS assay to identify small molecule antagonists of the glucocorticoid receptor (GR) signaling pathway (AID 720692; active = well fitted inhibition curve with a large enough effect in the signal ratio in the repeat runs, not every such curve was filed as active; inconclusive = weak or mixed curves, or effect the other way; inactive = no such curve, though single readings can be large or run the other way; the % refers to the signal ratio; note: potency is the fitted concentration of half-maximal effect; for activity change, negative = inhibition: % is set by controls: 0 for no effect and ±100 for the full control effect); conditions: GR-bla HeLa, beta-lactamase FRET ratio, dexamethasone-stimulated, 18 h; activity change, negative = inhibition: at 58.5 µM (top of the series) unless noted
Chain of UniProt P04150 (P04150 whole entry, looked up): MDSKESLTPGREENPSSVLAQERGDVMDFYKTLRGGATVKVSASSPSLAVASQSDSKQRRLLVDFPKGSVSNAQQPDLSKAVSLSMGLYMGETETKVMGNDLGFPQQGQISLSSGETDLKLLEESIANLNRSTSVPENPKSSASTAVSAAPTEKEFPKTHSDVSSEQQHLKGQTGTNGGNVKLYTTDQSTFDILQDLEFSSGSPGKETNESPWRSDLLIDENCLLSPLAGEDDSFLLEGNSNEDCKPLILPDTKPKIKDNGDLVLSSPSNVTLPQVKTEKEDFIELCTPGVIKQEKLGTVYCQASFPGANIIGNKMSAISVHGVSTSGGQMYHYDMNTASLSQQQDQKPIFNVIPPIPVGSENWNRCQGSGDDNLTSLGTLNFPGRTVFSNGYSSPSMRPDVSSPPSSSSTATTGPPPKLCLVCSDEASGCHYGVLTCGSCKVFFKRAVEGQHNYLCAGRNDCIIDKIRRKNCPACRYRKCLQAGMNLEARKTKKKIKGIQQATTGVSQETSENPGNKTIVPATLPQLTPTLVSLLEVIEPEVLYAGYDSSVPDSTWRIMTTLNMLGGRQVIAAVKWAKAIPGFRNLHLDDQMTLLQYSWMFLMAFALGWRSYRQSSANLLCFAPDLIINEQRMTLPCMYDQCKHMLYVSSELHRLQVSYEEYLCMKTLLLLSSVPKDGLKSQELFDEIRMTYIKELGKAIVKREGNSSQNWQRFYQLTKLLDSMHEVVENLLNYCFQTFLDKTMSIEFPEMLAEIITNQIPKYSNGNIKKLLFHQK
Method in brief: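 HeLa GR-bla cells; cmpd + dex 5 nM final, 18 h 37 C; LiveBLAzer B/G FRET substrate 2 h RT; fluorescence intensity read. Antagonist mode, qHTS.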

[3] = qHTS assay for identifying genotoxic compounds that show differential cytotoxicity against isogenic chicken DT40 cell lines with known DNA damage response pathways - wild type cell line (AID 743012); conditions: DT40 wild type chicken cells viability, CellTiter-Glo, 40 h; activity change, negative = cytotoxicity: at 68.4 µM (top of the series) unless noted; note: potency is the fitted concentration of half-maximal effect; nearly all actives have a fitted effect of over 60% in size
Method in brief: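 Wild type DT40, 300 cells/well, ~0.5 h settle at 37 C/5% CO2; compounds in DMSO added by pintool; 40 h at 37 C/5% CO2; CellTiter-Glo, 30 min RT; luminescence.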

[4] = qHTS assay for identifying genotoxic compounds that show differential cytotoxicity against isogenic chicken DT40 cell lines with known DNA damage response pathways - Rev3 mutant cell line (AID 743014); conditions: chicken DT40 Rev3-/- viability, CellTiter-Glo, 40 h; activity, negative = cytotoxicity: at 68.4 µM (top of the series) unless noted; note: potency is the fitted concentration of half-maximal effect; nearly all actives have a fitted effect of over 55% in size
[5] = qHTS assay to identify small molecule antagonists of the androgen receptor (AR) signaling pathway - cell viability counter screen (AID 743033; note: potency is the fitted concentration of half-maximal effect; nearly all actives have a fitted effect of over 45% in size); conditions: AR-bla HEK293 viability, CellTiter-Glo luminescence, 16 h; activity change, negative = cytotoxicity: at 58.5 µM (top of the series) unless noted
[6] = qHTS assay to identify small molecule antagonists of the estrogen receptor alpha (ER-alpha) signaling pathway - cell viability counter screen (AID 743074; calls by dose curve;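 note: HEK293 cells carrying ER-alpha-UAS-bla reporter stimulated with 17beta-estradiol; nearly all actives have a fitted effect of over 45% in size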; note: potency is the fitted concentration of half-maximal effect; for activity, negative = cytotoxicity: % is set by controls: 0 for no effect and ±100 for the full control effect)
[7] = qHTS assay for identifying genotoxic compounds that show differential cytotoxicity against isogenic chicken DT40 cell lines with known DNA damage response pathways - Rad54/Ku70 mutant cell line (AID 743015); conditions: DT40 Rad54/Ku70 mutant viability, CellTiter-Glo, 40 h; activity change, negative = cytotoxicity: at 66.8 µM (top of the series) unless noted; note: nearly all actives have a fitted effect of over 60% in size; note: potency is the fitted concentration of half-maximal effect
[8] = biological target: Estrogen receptor (Homo sapiens) (UniProt P03372); experiment: qHTS assay to identify small molecule agonists of the estrogen receptor alpha (ER-alpha) signaling pathway using the BG1 cell line (AID 743079); conditions: BG1Luc4E2 cells, ERE-luciferase agonist, 22 h; activation: at 70.3 µM (top of the series) unless noted; note: nearly all actives have a fitted effect of over 20% in size; note: potency is the fitted concentration of half-maximal effect
Chain of UniProt P03372 (P03372 whole entry, looked up): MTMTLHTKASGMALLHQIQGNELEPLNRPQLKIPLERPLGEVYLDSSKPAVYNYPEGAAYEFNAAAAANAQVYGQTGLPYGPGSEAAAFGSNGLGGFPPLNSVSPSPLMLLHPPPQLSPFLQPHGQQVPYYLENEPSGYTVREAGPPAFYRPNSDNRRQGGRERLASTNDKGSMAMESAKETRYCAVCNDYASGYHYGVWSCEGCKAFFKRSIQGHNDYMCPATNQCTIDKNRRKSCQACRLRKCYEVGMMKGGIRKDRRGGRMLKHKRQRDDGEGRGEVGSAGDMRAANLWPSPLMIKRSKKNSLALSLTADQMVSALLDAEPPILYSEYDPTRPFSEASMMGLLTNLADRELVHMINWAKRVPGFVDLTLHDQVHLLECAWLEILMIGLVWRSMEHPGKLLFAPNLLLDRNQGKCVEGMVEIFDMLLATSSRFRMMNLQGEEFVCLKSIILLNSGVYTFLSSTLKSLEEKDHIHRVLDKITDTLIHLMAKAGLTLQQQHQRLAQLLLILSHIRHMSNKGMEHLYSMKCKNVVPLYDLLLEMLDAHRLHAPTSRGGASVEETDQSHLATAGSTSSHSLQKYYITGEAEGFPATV

[9] = biological target: Glucocorticoid receptor (Homo sapiens) (UniProt P04150); experiment: qHTS assay to identify small molecule agonists of the glucocorticoid receptor (GR) signaling pathway (AID 720691; active = well fitted activation curve with a large enough effect in the signal ratio in the repeat runs, not every such curve was filed as active; inconclusive = weak or mixed curves, or effect the other way; inactive = no such curve, though single readings can be large or run the other way; the % refers to the signal ratio; note: potency is the fitted concentration of half-maximal effect); conditions: GR-bla HeLa, beta-lactamase reporter ratio, 18 h; activation: at 62.4 µM (top of the series) unless noted
Method in brief: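 Fluorescence intensity from LiveBLAzer B/G FRET substrate (2 h, room temperature) reports beta-lactamase expression driven by the glucocorticoid response element in GR-bla HeLa cells after 18 h compound exposure at 37 C.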

[10] = qHTS assay to identify small molecule antagonists of the glucocorticoid receptor (GR) signaling pathway - cell viability counter screen (AID 720693); conditions: GR-bla HeLa viability, CellTiter-Glo luminescence, 18 h, with 5 nM dexamethasone present; viability change, negative = cytotoxic: at 58.5 µM (top of the series); note: potency is the fitted concentration of half-maximal effect; nearly all actives have a fitted effect of over 55% in size
[11] = test system: thyroid hormone receptor (rat, GH3 cells); experiment: qHTS assay to identify small molecule agonists of the thyroid receptor (TR) signaling pathway (AID 743066; calls by dose curve; note: potency is the fitted concentration of half-maximal effect); conditions: GH3.TRE-Luc cells, TR agonist luciferase, 24 h; activation: at 83.9 µM (top of the series) unless noted
[12] = biological target: Estrogen receptor (Homo sapiens) (UniProt P03372); experiment: qHTS assay to identify small molecule antagonists of the estrogen receptor alpha (ER-alpha) signaling pathway (AID 743069; active = well fitted curve in the direction sought with a large enough effect in the signal ratio in the repeat runs, not every such curve was filed as active; inconclusive = weak or mixed curves, or effect the other way; inactive = no such curve, though single readings can be large or run the other way; the % refers to the signal ratio; note: potency is the fitted concentration of half-maximal effect); conditions: HEK293 ER-alpha-UAS-bla, beta-lactamase ratio, antagonist mode; activity, negative = inhibition: at 69.4 µM (top of the series) unless noted
Method in brief: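 Reporter cells (ER-alpha-bla, HEK293 background) are conditioned overnight in stripped-serum medium (2% charcoal-stripped FBS). Compound and 17beta-estradiol exposure runs 18 hr at 37C, 5% CO2.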

[13] = qHTS assay to identify small molecule antagonists of the estrogen receptor alpha (ER-alpha) signaling pathway using the BG1 cell line (AID 743080; calls by dose curve; note: potency is the fitted concentration of half-maximal effect; nearly all actives have a fitted effect of over 25% in size); conditions: BG1Luc4E2 ERE-luciferase antagonist mode, luminescence; activity change, negative = inhibition: at 70.3 µM (top of the series) unless noted
Method in brief: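 Antagonist mode: compounds in DMSO were pinned onto BG1-Luc-4E2 cells alongside 17beta-estradiol agonist, incubated 21.5 h, and ERE-driven luciferase measured with ONE-Glo. Cytotoxicity was multiplexed using CellTiter-Fluor fluorescence.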

[14] = qHTS assay for small molecule disruptors of the mitochondrial membrane potential (AID 720635); conditions: HepG2 mitochondrial membrane potential, Mito-MPS dye ratio; ratio activity, negative = MMP loss: at 83.2 µM (top of the series) unless noted; note: % is set by controls: 0 for no effect and ±100 for the full control effect
Method in brief: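 HepG2 cells exposed to compound 1 hr at 37C, then Mito-MPS dye 30 min. Ratio read of aggregate (540/590 nm) versus monomer (490/535 nm) fluorescence.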

[15] = qHTS assay to identify small molecule antagonists of the androgen receptor (AR) signaling pathway using the MDA cell line - cell viability counter screen (AID 743041; note: potency is the fitted concentration of half-maximal effect; nearly all actives have a fitted effect of over 45% in size); conditions: MDA-kb2 viability, CellTiter-Fluor, 16 h, cells co-treated with R1881 androgen agonist; viability change, negative = cytotoxic: at 70.3 µM (top of the series)
Method in brief: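 Same-well cytotoxicity was assessed by CellTiter-Fluor in MDA-kb2 AR-luc cells after 16 h of compound treatment under R1881 agonism.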

[16] = qHTS assay to identify aromatase inhibitors - cell viability counter screen (AID 743084); conditions: MCF-7 aro ERE viability, CellTiter-Fluor, 24 h; activity change, negative = cytotoxicity: at 70.3 µM (top of the series) unless noted;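 note: cells stimulated with testosterone during compound exposure; potency is the fitted concentration of half-maximal effect; nearly all actives have a fitted effect of over 55% in size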
[17] = biological target: Peroxisome proliferator-activated receptor gamma (Homo sapiens) (UniProt P37231); experiment: qHTS assay to identify small molecule agonists of the peroxisome proliferator-activated receptor gamma (PPARg) signaling pathway (AID 743094; active = well fitted activation curve with a large enough effect in the signal ratio in the repeat runs, not every such curve was filed as active; inconclusive = weak or mixed curves, or effect the other way; inactive = no such curve, though single readings can be large or run the other way; the % refers to the signal ratio; note: potency is the fitted concentration of half-maximal effect); conditions: HEK293H PPARg-UAS-bla, beta-lactamase FRET ratio, 17 h; activation: at 57 µM (top of the series) unless noted
Chain of UniProt P37231 (P37231 whole entry, looked up): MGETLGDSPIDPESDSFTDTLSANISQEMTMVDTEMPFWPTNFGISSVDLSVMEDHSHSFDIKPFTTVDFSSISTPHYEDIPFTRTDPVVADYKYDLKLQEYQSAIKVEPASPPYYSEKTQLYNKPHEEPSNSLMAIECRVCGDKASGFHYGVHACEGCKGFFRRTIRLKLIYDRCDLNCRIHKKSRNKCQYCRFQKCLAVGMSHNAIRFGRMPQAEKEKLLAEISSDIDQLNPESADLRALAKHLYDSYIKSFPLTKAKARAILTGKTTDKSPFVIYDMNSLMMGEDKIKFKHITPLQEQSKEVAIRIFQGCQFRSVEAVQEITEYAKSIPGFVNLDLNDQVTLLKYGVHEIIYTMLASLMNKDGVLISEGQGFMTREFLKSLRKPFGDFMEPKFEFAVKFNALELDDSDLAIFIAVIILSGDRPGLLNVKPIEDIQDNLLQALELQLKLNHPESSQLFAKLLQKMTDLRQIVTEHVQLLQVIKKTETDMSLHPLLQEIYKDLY
Method in brief: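 Beta-lactamase FRET fluorescence was the read-out after a 1 h room-temperature substrate step, following 17 h compound treatment at 37C of HEK293H cells expressing a UAS-driven bla reporter responsive to PPARg.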
Tags give direction and shape of the fitted curve or compound fluorescence and quenching.

C[C@H](CCCC(C)(C)O)[C@H]1CC[C@H]2[C@@H]3CC=C4C[C@@H](O)CC[C@]4(C)[C@H]3CC[C@]12C
inconclusive: Potency [1] 15 µM [rising, full curve, poor fit] | activity change, negative = inhibition [2] 11% | Potency [5] 10.7 µM [rising, partial curve, poor fit]
active: Potency [3] 1.68 µM | Potency [4] 0.211 µM
inactive: Potency [6]

CC(C)CCCC(C)NC(C)C (stereo unspecified)
inconclusive: activation [1] 2.34%
inactive: Potency [7]

CC(C)(COP(=O)(O)OP(=O)(O)OC[C@H]1O[C@@H](n2cnc3c(N)ncnc32)[C@H](O)[C@@H]1OP(=O)(O)O)C(O)C(=O)NCCC(=O)NCCS (stereo partly specified)
active: Potency [8] 26.6 µM
inactive: Potency [1] | Potency [7]

O=C(Nc1ccc(Br)cc1)c1cc(Br)c(Br)s1
inconclusive: Potency [1] 16.8 µM [falling, partial curve] | Potency [9] 21.3 µM [cytotoxic, partial curve] | Potency [2] 23.9 µM [cytotoxic, partial curve] | activation [11] -9.71% [phenotype inactive] | Potency [12] 10.7 µM | Potency [6] 8.49 µM [cytotoxic, partial curve, poor fit] | activation [8] -5.62% [phenotype inactive] | Potency [13] 0.0106 µM [falling, full curve, poor fit]
active: Potency [10] 21.3 µM | Potency [3] 26.6 µM | Potency [4] 33.5 µM | Potency [7] 26.6 µM | Potency [5] 21.3 µM

O=C1CC[C@@H](C(=O)N[C@H]2C[C@@H]2c2ccccc2)N1
inconclusive: activity change, negative = inhibition [2] 7.84%
inactive: Potency [1] | Potency [14]

CCCC1([C@H](O)C/C=C/[C@H]2[C@H](O)CC(=O)[C@@H]2CCCCCCC(=O)OC)CCC1
inconclusive: Potency [1] 33.5 µM [activator] | ratio activity, negative = MMP loss [14] -7.22% | Potency [2] 26.8 µM [cytotoxic] | Potency [10] 26.8 µM [cytotoxic, single point] | Potency [15] 33.5 µM [cytotoxic, partial curve, poor fit] | Potency [11] 33.5 µM [inhibitor, partial curve, poor fit] | Potency [12] 6.01 µM [fluorescent, full curve, poor fit] | Potency [16] 29.8 µM [cytotoxic, single point] | Potency [17] 26.8 µM [single point]
